From the supplement of paper PMC10126150
Sequences with one replicate were seen in a single cluster, so their values are uncertain.

The sequences below were run on ATP (assay: switch fluorescence ratio, 500 uM ATP over buffer (Cy3 cluster intensity, sum of 5 cycles each) (fold (ratio)); higher = stronger signal-on switching upon ATP binding; sequences stand for … in TCGTCGGCAGCGTCAGATGTGTATAAGAGACAGTTTTTTTTTTTTTTTTTTTTTTTTT…TC). Settings: aptamer strand: ATP DNA aptamer (quencher-CACCTGGGGGAGTATTGCGGAGGAAGG + anchor), 100 nM annealed; ATP concentration: 500 uM; one replicate.
Outline: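 Clusters with intensities outside 100-1000 RFU were excluded. The remaining Cy3-labelled switching-strand clusters on a modified Illumina MiSeq flow-cell had been annealed to 100 nM quencher-labelled ATP aptamer and imaged in selection buffer, then after 15 min with 500 uM ATP at 22 °C, for five cycles separated by NaOH stripping and re-annealing. The fluorescence ratio, averaged per switch-domain sequence, is each cluster's summed target-cycle Cy3 intensity over its summed buffer-cycle Cy3 intensity.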
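Note: ATP exposure 15 min at 22 °C before imaging.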

| Sequence | switch fluorescence ratio |
| --- | --- |
| GAGCTCTGTT | 0.99 |
| GAGCTCTTAA | 0.968 |
| GAGCTTCAGT | 1.02 |
| GAGCTTTTCG | 1.03 |
| GAGGAACACC | 0.951 |
| GAGGAACTGT | 1.04 |
| GAGGAAGTCA | 1.01 |
| GAGGAATCAG | 0.999 |
| GAGGACCAGT | 0.986 |
| GAGGACCTAC | 1.07 |
| GAGGACGACA | 1.01 |
| GAGGACGAGC | 1.02 |
| GAGGAGGGAA | 1.03 |
| GAGGAGGGTG | 1.05 |
| GAGGATACCT | 1.1 |
| GAGGATGCGG | 1.14 |
| GAGGATTAAT | 0.952 |
| GAGGCATGAT | 0.993 |
| GAGGCCAAAG | 1.05 |
| GAGGCCAATG | 1.01 |
| GAGGCCCCTG | 1.02 |
| GAGGCCCTGC | 0.935 |
| GAGGCCTGAA | 1 |
| GAGGCGCCTT | 0.981 |
| GAGGCTCTCT | 0.998 |
| GAGGGAACGC | 0.944 |

| Sequence | switch fluorescence ratio |
| --- | --- |
| GAGGGAGAGT | 1.02 |
| GAGGGAGTCC | 0.939 |
| GAGGGGCTA | 0.998 |
| GAGGGGTCGC | 0.964 |
| GAGGTAACGA | 0.947 |
| GAGGTACCTA | 1.01 |
| GAGGTATATA | 1.04 |
| GAGGTCGGAA | 1 |
| GAGGTCGTA | 0.992 |
| GAGGTGCGTG | 0.968 |
| GAGGTTAAG | 0.978 |
| GAGTACATCG | 0.987 |
| GAGTAGAACT | 0.987 |
| GAGTAGGGAT | 0.974 |
| GAGTAGGGCC | 1.07 |
| GAGTATGTAT | 0.937 |
| GAGTATTATG | 1.03 |
| GAGTCATAAA | 0.969 |
| GAGTCATCTG | 0.979 |
| GAGTCCGGTG | 1.2 |
| GAGTCCTTTG | 0.951 |
| GAGTCGAAAG | 0.981 |
| GAGTCGAGGT | 1.01 |
| GAGTCGCAGA | 0.987 |
| GAGTCGCGCC | 0.949 |
| GAGTCGCTGA | 0.976 |

| Sequence | switch fluorescence ratio |
| --- | --- |
| GAGTCTGGTG | 0.987 |
| GAGTGAAGTA | 0.968 |
| GAGTGATCGA | 1.06 |
| GAGTGCATAT | 1.04 |
| GAGTGCGTGG | 0.956 |
| GAGTGCTCAA | 1.01 |
| GAGTGGAGAG | 0.976 |
| GAGTGTATTC | 0.953 |
| GAGTGTCTCG | 1.01 |
| GAGTGTTTTC | 0.99 |
| GAGTTAAGGC | 0.938 |
| GAGTTACGTA | 1.04 |
| GAGTTAGGAG | 1.04 |
| GAGTTAGGAT | 0.948 |
| GAGTTGCAG | 0.94 |
| GAGTTGCTGC | 1.03 |
| GAGTTTAAAG | 0.955 |
| GAGTTTACCA | 1 |
| GAGTTTATA | 1.01 |
| GAGTTTTCCG | 1.04 |
| GATAAAAAGG | 0.976 |
| GATAAAATCG | 1.01 |
| GATAAATACT | 1.09 |
| GATAACATGG | 1.02 |
| GATAACCCGA | 1.19 |
| GATAACGGTT | 1.02 |

| Sequence | switch fluorescence ratio |
| --- | --- |
| GATAAGACGC | 1.07 |
| GATAAGTACC | 1.44 |
| GATACCTAAA | 1.06 |
| GATACGCAGC | 1.73 |
| GATACGCTTT | 1.05 |
| GATACGTATT | 1.35 |
| GATACTGAG | 1.06 |
| GATACTTTG | 1.02 |
| GATAGAATCG | 1.03 |
| GATAGAGGAG | 0.967 |
| GATAGCATAG | 1.09 |
| GATAGCGA | 1.01 |
| GATAGCGAAC | 1.59 |
| GATAGGCGTA | 0.971 |
| GATAGTATCG | 0.953 |
| GATAGTCTGT | 0.98 |
| GATAGTTCCG | 1.03 |
| GATATAGATG | 1 |
| GATATATAAA | 0.95 |
| GATATCGCAT | 1.19 |
| GATATGAACA | 1.02 |
| GATATTACAC | 1.04 |
| GATCAAGCCA | 0.991 |
| GATCACTGAC | 1.36 |
| GATCAGGAGT | 0.966 |
| GATCCACGTT | 1.03 |

| Sequence | switch fluorescence ratio |
| --- | --- |
| GATCCCCGAT | 1 |
| GATCCCGAGC | 1.02 |
| GATCCGGCAT | 1.11 |
| GATCGAAGCG | 1.01 |
| GATCGATCTG | 0.98 |
| GATCGATGTT | 0.985 |
| GATCGATTTA | 1.02 |
| GATCGCCGGG | 0.943 |
| GATCGGCTGT | 0.969 |
| GATCGGGGA | 1 |
| GATCGTTACT | 0.971 |
| GATCTAGAGT | 0.982 |
| GATCTATATT | 1.03 |
| GATCTCCTT | 1.02 |
| GATCTCGCCG | 0.961 |
| GATCTCTTGT | 0.992 |
| GATCTGCGTT | 0.985 |
| GATCTGTATT | 1.03 |
| GATCTTAGAT | 0.984 |
| GATCTTCATC | 0.966 |
| GATCTTCCGG | 1.09 |
| GATCTTTCCC | 0.995 |
| GATCTTTTGC | 0.959 |
| GATCTTTTGG | 0.988 |
| GATGAAAATT | 1.34 |
| GATGAAACG | 1.04 |

| Sequence | switch fluorescence ratio |
| --- | --- |
| GATGAATGCG | 0.98 |
| GATGACTACC | 1.17 |
| GATGACTGAA | 0.985 |
| GATGAGATAT | 1.03 |
| GATGATAGTG | 0.958 |
| GATGATATTT | 0.991 |
| GATGATGAAC | 1.03 |
| GATGATGATA | 1.03 |
| GATGATTG | 0.95 |
| GATGCATCAG | 0.998 |
| GATGCCTAC | 1.21 |
| GATGCGGAAA | 1.02 |
| GATGCGGCAG | 0.978 |
| GATGCGGTGC | 1.78 |
| GATGCGTCAA | 1.03 |
| GATGCTCGAC | 0.995 |
| GATGCTTAAT | 0.954 |
| GATGCTTCTA | 0.963 |
| GATGCTTCTC | 1.04 |
| GATGGCACCC | 1.25 |
| GATGGCATGG | 0.973 |
| GATGGCGAAC | 1.05 |
| GATGGCTACA | 0.983 |
| GATGGGAAAG | 0.946 |
| GATGGGCAAC | 1.01 |
| GATGGGGAAC | 0.969 |

| Sequence | switch fluorescence ratio |
| --- | --- |
| GATGGGGCCA | 0.969 |
| GATGGGTCCT | 0.968 |
| GATGGGTCTC | 1.05 |
| GATGGGTTCC | 1.03 |
| GATGTACGAG | 1.01 |
| GATGTATGT | 0.996 |
| GATGTCCAAC | 1 |
| GATGTCCTTA | 1.02 |
| GATGTGACCG | 0.953 |
| GATGTGCAA | 1.02 |
| GATGTGCGAT | 0.952 |
| GATGTGGTTT | 1 |
| GATGTTAAGG | 1.03 |
| GATGTTTG | 0.957 |
| GATTAAGGCC | 1.01 |
| GATTACCAGT | 0.963 |
| GATTACGGAT | 1.02 |
| GATTAGAGCT | 1.03 |
| GATTAGCGAA | 1.01 |
| GATTAGCGTA | 1.04 |
| GATTAGGCTA | 0.99 |
| GATTATAGTC | 1.01 |
| GATTATCCAA | 1.01 |
| GATTATCCCC | 1.03 |
| GATTATCGCC | 0.979 |
| GATTCAGTGG | 1.01 |

| Sequence | switch fluorescence ratio |
| --- | --- |
| GATTCATTA | 1.01 |
| GATTCATTGG | 1.01 |
| GATTCGATAT | 1.03 |
| GATTCGATGG | 0.996 |
| GATTCGCCGA | 1.04 |
| GATTCGTAAC | 0.995 |
| GATTCTAGT | 0.989 |
| GATTCTC | 1.01 |
| GATTCTTTGG | 0.998 |
| GATTGACCTC | 0.949 |
| GATTGCAG | 0.992 |
| GATTGCATTC | 1.14 |
| GATTGGCTGC | 0.944 |
| GATTGGGAA | 1 |
| GATTGGTATA | 0.98 |
| GATTGGTTG | 0.973 |
| GATTGTAGAA | 1.03 |
| GATTTACTTG | 1.05 |
| GATTTCGTGT | 1 |
